Measured values: the RNAGym collection of RNA variant scans (doi:10.7554/elife.90254)
Read counts are not given, so values of variants with three or more changes are uncertain.

B1: LINE1-mini (parent)
chain: GGCAGAGCUCAACACAGCGUGGCAAAGUGGCUGUGGCUAGACUGCC

Variants of: B1
Test: self-cleavage, relative activity (ratio to wild type); higher = more cleavage; in vitro, sequencing; the parent is a self-cleaving ribozyme

| Variant | self-cleavage |
| --- | --- |
| GGCAGAGCUCAAGACAGCGCGGCAAAGUGGCUUUGGCUAGACUGCC [C13G U20C G33U] | 0.01 |
| GGCAGAGCUCAAUACUGCGUGGCAAAGUGGCUGUGGCUAGACUGCU [C13U A16U C46U] | 0.14 |
| GGCAGAGCUCAAUCAGCGGUGGCAAAGUGGCUGUGGCUAGACUGCC [C13U A14C C15A A16G G17C C18G] | 0.04 |
| GGCAGAGCUCAAGACAGCGUGGCAAAGUGGCCGUGUCAAGACUGCG [C13G U32C G36U U38A C46G] | 0.12 |
| GGCAGAGCUCAAGACAGCGUGGCAAAGUGGCUGUACCUAGACUGCC [C13G G35A G36C] | 0.11 |
| GGCAGAGCUCAAUUCAGCUUGGCAAAUUGGCUGUGGCUAGUCUUCC [C13U A14U G19U G27U A41U G44U] | 0.03 |
| GGCAGAGCUCAAGACAGCGAGGCAAAAUGGCUGUGGCUAGAUUGCC [C13G U20A G27A C42U] | 0.16 |
| GGCAGAGCUCAAGACAGCGUGGCAAAGUGCCUGCGGCUACACUGCC [C13G G30C U34C G40C] | 0.05 |
| GGCAGAGCUCAAGACAGCGUGGCAAAGUGGCUGUGACUAGCCUGCC [C13G G36A A41C] | 0.06 |
| GGCAGAGCUCAAGACAGCGUGGCAAAGUUGCUGUGGAUAGACUGCC [C13G G29U C37A] | 0.16 |
| GGCAGAGCUCAAGACAUCGUAGCAGAGUGGCUGUGGCUAGACUGCC [C13G G17U G21A A25G] | 0.01 |
| GGCAGAGCUCAAGACAGCGCGGCAAAGUCGCUGUGGCUCGAUUGAC [C13G U20C G29C A39C C42U C45A] | 0.01 |
| GGCAGAGCUCAAGACAUAGUGGCAAAGUGGCUGUGGCUAGACUGGC [C13G G17U C18A C45G] | 0.12 |
| GGCAGAGCUCAAGACAUCGUGGCAAAGAUGCUGUGGCUAGAUUGCC [C13G G17U U28A G29U C42U] | 0.28 |
| GGCAGAGCUCAAGACAGCUGGGCAAAGUGGCUGUGGCUAGCCUGCC [C13G G19U U20G A41C] | 0.04 |
| GGCAGAGCUCAAGACAGCGUGGCAAAGUGGCUCUGGCUAGACUGCU [C13G G33C C46U] | 0.18 |
| GGCAGAGCUCAAGACACCGUCGCAAAAUGUCCGUGGCUAGACUGAC [C13G G17C G21C G27A G30U U32C C45A] | 0.02 |
| GGCAGAGCUCAAUGCAGUGUGGCAAAGUGGCUGUGGCUAGAUUGCC [C13U A14G C18U C42U] | 0.01 |
| GGCAGAGCUCAAGACAUCGUGGCAAAGUGCCUGUGGCUAGACUGCC [C13G G17U G30C] | 0.03 |

| Variant | self-cleavage |
| --- | --- |
| GGCAGAGCUCAAGACAGCGUAGCAAAGAGACUGUUGCUAGACUGCC [C13G G21A U28A G30A G35U] | 0.08 |
| GGCAGAGCUCAAGACAGCGUGGCAAACUGGCUGUGGCCCGUUUGCC [C13G G27C U38C A39C A41U C42U] | 0 |
| GGCAGAGCUCAAUUCAGCGAAGCAAAGCGGCUGUGGACAAACUGCC [C13U A14U U20A G21A U28C C37A U38C G40A] | 0.05 |
| GGCAGAGCUCAAUUCAGCGUGGCAAAGUGGCUGUAGCUAGACUGCC [C13U A14U G35A] | 0.12 |
| GGCAGAGCUCAAGACAUCGUGGCAAAGUGGCUGGGGCUAGACUGCC [C13G G17U U34G] | 0.02 |
| GGCAGAGCUCAAUUCAGCGUGCCAAAGUCGCUGUGGCGAGACUGCC [C13U A14U G22C G29C U38G] | 0.01 |
| GGCAGAGCUCAAGACAGCAUGGCAAAGUGCCUGUGGCGCGACUGCC [C13G G19A G30C U38G A39C] | 0.08 |
| GGCAGAGCUCAAGACAGCGUGGCAAAAUGGCUGUGGCUAUACUGCC [C13G G27A G40U] | 0.12 |
| GGCAGAGCUCAAGACAGCGUGGCAAAUUGGCUGUGGCUCGACUGCC [C13G G27U A39C] | 0.11 |
| GGCAGAGCUCAAGACAGCGUGGCAAAGAGGCUGUGGCUCGACUGCC [C13G U28A A39C] | 0.05 |
| GGCAGAGCUCAAGACAGCCUGGAAAAGUGGCUUUGGCUAGACUCCC [C13G G19C C23A G33U G44C] | 0.01 |
| GGCAGAGCUCAAGACAGCGUUGCAAAGAGGCUGUGGCUAGACUGCC [C13G G21U U28A] | 0.21 |
| GGCAGAGCUCAAGACAGCGUCGCAAAGUGGCUGUGGCUAGACGGCC [C13G G21C U43G] | 1.91 |
| GGCAGAGCUCAAGACAGCGUAGCAAAGUGGCUGUUGCUAGACUGCC [C13G G21A G35U] | 2.46 |
| GGCAGAGCUCAAGACAACGUAGCAAAGUGGCUGUCCCUAGACUGCC [C13G G17A G21A G35C G36C] | 0.08 |
| GGCAGAGCUCAAGACAGCGUGACUAAGUGGCUGUGGCUAGACUGCC [C13G G22A A24U] | 0.24 |
| GGCAGAGCUCAAGACACCGUCUCAUAGUCGCUGUGGCUACACUGCC [C13G G17C G21C G22U A25U G29C G40C] | 0.04 |
| GGCAGAGCUCAAGACAGCUUGGCAAAGUGGUUGUGGCUAGACUCUC [C13G G19U C31U G44C C45U] | 0.03 |
| GGCAGAGCUCAAGACAGCGUGGCAAAGAGGCUGUGGGUAGACUGCC [C13G U28A C37G] | 0.02 |

| Variant | self-cleavage |
| --- | --- |
| GGCAGAGCUCAAUACCGCGUUGCAAACUUGCUGUGGCUAGACUGCC [C13U A16C G21U G27C G29U] | 0.15 |
| GGCAGAGCUCAAGACAGCGUGGCAAAGUGGCGGUGGCUAAACUGCC [C13G U32G G40A] | 0.07 |
| GGCAGAGCUCAAGACAGCGUGGCAAAGUGGCUGAGGCUAGCCUGCC [C13G U34A A41C] | 0.01 |
| GGCAGAGCUCAAGACAGCGUGACAAAGGGGCUGUGGAUAGACUGCC [C13G G22A U28G C37A] | 0.02 |
| GGCAGAGCUCAAGACAGCGUGGCAAAAUGCCUGUGGCUAGACUGCC [C13G G27A G30C] | 0.05 |
| GGCAGAGCUCAAGACAGCGUGGCAAAGUGGCUGUGGCUAUACUGCA [C13G G40U C46A] | 0.04 |
| GGCAGAGCUCAAGACAGCGUGGCAAAGUGGCUAUGGCUAGACUGAC [C13G G33A C45A] | 0.01 |
| GGCAGAGCUCAAGACAGCAUGGCAAGGUGGCUGUGGCUAGACUGCC [C13G G19A A26G] | 0.04 |
| GGCAGAGCUCAAUUCAACGUGGCAAAGUGGCUGUGGCUAGACUGCC [C13U A14U G17A] | 0.13 |
| GGCAGAGCUCAAGACAGCGUGGCAAAGUGGCUGUGGCUACACUGCG [C13G G40C C46G] | 0.07 |
| GGCAGAGCUCAAGACAGCGUGCCAAAGUGGUUGUGGCUAGUCUGUC [C13G G22C C31U A41U C45U] | 0.03 |
| GGCAGAGCUCAAGACAACGUGGCAAAGUGGCUGUGGCUAGACUACC [C13G G17A G44A] | 0.04 |
| GGCAGAGCUCAAGACAGCGGGGCAAAGUGGCUGUGGCUAGACUGUA [C13G U20G C45U C46A] | 0.01 |
| GGCAGAGCUCAAGACAGCGUGGCAAAGUGGCUACGGCUAGACUGCC [C13G G33A U34C] | 0.05 |
| GGCAGAGCUCAAGACAGCGUGGCAAAGUGGCUGUUGCUAAACUGCC [C13G G35U G40A] | 0.2 |
| GGCAGAGCUCAAGACAGCGCGGAAAAGUGGCUGUGGCUAGACUGCC [C13G U20C C23A] | 0.07 |
| GGCAGAGCUCAAUCCAACGUGGCAAAUUGGCUGUAGCUAGACUGCC [C13U A14C G17A G27U G35A] | 0.01 |
| GGCAGAGCUCAAUACUGCCUGGCAAUGUGGCUGUGGCUAGACUCCA [C13U A16U G19C A26U G44C C46A] | 0.06 |
